Paper PMC12136788
Some of the results follow.

B1: chr1:225611761:225611762:-_ENSG00000143815_ENST00000272163|hu_mus|hu_hu_hu_mus_True|8_18 (ssRNA)
RNA: GGGAGUUCUACAGUCCGACGAUCCCAGGCCAUCGGCCUCUGACCACUUCACCCUCAACAAACUUCCUACUUGGCAUUUUCUAAAAUUAGUCUGGCCGCGCUCCGGCGGGAACUCCAGACGGCUCCCGGAGAAUAGUAGCAGCCCAACAGAGGAUUGAGCAUCA
B2: chr1:220276048:220276049:+_ENSG00000067704_ENST00000302637|hu_hu|hu_hu_hu_mus_True|88_88 (ssRNA)
RNA: GGGAGUUCUACAGUCCGACGAUCGCAAAUUGCCUGGUUGGCGGGAAUCGUCCAAGGCUGGGUGGUCCAAACUAAAACGCUAACAGGGGAUGAGGCAUCUGUAAGAGACUCCAACUUCGGAGGAGGUCUCAGGAGGGGGAAUCUCAACAGAGGAUUGAGCAUCA
B3: chr19:15271381:15271382:-_ENSG00000074181_ENST00000263388|hu_hu|FALSE|FALSE (ssRNA)
RNA: GGGAGUUCUACAGUCCGACGAUCACGCUGCAAGGCAAGGAUGCAGGAGGGUUGGUGGAAAGAGAAGAGGAUGAAAAAGACUAAAAGGAAGGAAGAGACAGAGAAAGAAAGGAGGCAGGACGGGGGUCUCUUUAGGCCCCCAAGCAACAGAGGAUUGAGCAUCA
B4: chr1:167345318:167345319:+_ENSG00000143190_ENST00000367866|hu_hu|FALSE|FALSE (ssRNA)
RNA: GGGAGUUCUACAGUCCGACGAUCCGUCUGUGAGAUGAUAAACUGCGCUGGCUGCAAAUUGGUGGUUGGAUGCACCAACACAAACUGUUGCAGGUUGAGAUUCUGCUGUUGAAGCUGUUGCAGUUGUUGAAGAUCCUGUGCGAUCAACAGAGGAUUGAGCAUCA
B5: 13149494_13149614_1529_3pUTR_ENSMUSG00000024423_ENSMUST00000025290|mouse|control|control (ssRNA)
RNA: GGGAGUUCUACAGUCCGACGAUCGAUGAAUACUCGGGUUUUCACGUAAACUAUCACUCCAUGAUGAAUACUAUGGAAGGAAGCGUGACUCACUUGUGAAAUCACAAGAGAAAGACUCCCCAAGACCUCCGUCUUCCAUGCGCCCAACAGAGGAUUGAGCAUCA
B6: chr2:172291668:172291669:+_ENSG00000115827_ENST00000375255|hu_hu|motif|central (ssRNA)
RNA: GGGAGUUCUACAGUCCGACGAUCAACACUGCUGACACAGCGCCGAUAAUUGUCAAAAUAUAUUCUUCCUCUCUCAUAGGCGGUAGGUGACCUGGAAUGAGUUGUCCAGACAUUCUUAAAUUUAGUACUUUCCUGGCACACCAGCAACAGAGGAUUGAGCAUCA
B7: chr4:99801976:99801977:-_ENSG00000151247_ENST00000280892|hu_mus|motif|central (ssRNA)
RNA: GGGAGUUCUACAGUCCGACGAUCCACAUCUGCGGGUUCUGGGGUGACGUAUACUGUAAUUCUUUGAUUGGGAUAGUGGACACACGGGCAAAAAUUGGGGGUGGGGGAGGAGAAUGAACACAGAAGUACAAGACAAAGGCGAAUCAACAGAGGAUUGAGCAUCA
B8: chr16:94664741:94664742:+_ENSMUSG00000040785_ENSMUST00000117648|mus_hu|mus_mus_mus_hu_False|38_98 (ssRNA)
RNA: GGGAGUUCUACAGUCCGACGAUCUGGUACUGAUCUUUGCAUUGGAUAUUCAGGAGAAAGGCUGGCCAAGGGUGUAUAUAUGCUGGUGUACUGGGGCAGGCUAGGUAACACGUUUAUGUAUGCUGGCGGUGUCUGGGUGAUAUCCAACAGAGGAUUGAGCAUCA
B9: chr10:121586235:121586236:+_ENSG00000198825_ENST00000369080|perfect_dup|FALSE|FALSE (ssRNA)
RNA: GGGAGUUCUACAGUCCGACGAUCGAGGUUGCCAAUAUUUACAUUGGAUUUGGUCUGCUUCACUUUUUGAUUUAGAGAUGAAAAUUUGCUCAUUAAAAAAUUCUUUCCCUGGGCCAAAGAACCUUGGUUUUGAGACCUGAUACCCAACAGAGGAUUGAGCAUCA
B10: chr14:76904430:76904431:+_ENSMUSG00000022010_ENSMUST00000022587|mus_mus|mus_mus_mus_hu_True|18_38 (ssRNA)
RNA: GGGAGUUCUACAGUCCGACGAUCUGCAGCCAAAAACACCCUCGUGGAAAAAAAGAGGGAACACCAGCAGCCUUGUAUAAGCUAGAUAAAAUCUUCUAGCUGUCUGCAGCCCAGGGAGUGAGAACGGACGGCAGCCCUAAUUUACAACAGAGGAUUGAGCAUCA
B11: 84185012_84186113_6023_CDS_ENSMUSG00000020532_ENSMUST00000020843|mouse|control|control (ssRNA)
RNA: GGGAGUUCUACAGUCCGACGAUCUGGGAACCAAACCUGGCCGGCCUGCUGGAUUAUCUUGGCUUCAGAAUCCAGGUUCGCAGGAUCAGCUGGGAUACUGAGUUCCACUGUUCGGGUUUCUACAGCAACUACUCCCACGGGUAUCAACAGAGGAUUGAGCAUCA
B12: chr11:63961690:63961691:+_ENSG00000168439_ENST00000305218|hu_mus|FALSE|FALSE (ssRNA)
RNA: GGGAGUUCUACAGUCCGACGAUCUUCAUGUUUUAAACCUUCUUCAUAGGUUCGUUUGGCUUCCUCAAACCGGUUUAGGAAUUCAAGGGCUGCUGCUUUUCUUGAAUAACCCUUGCCCCAGUCAGGCUUCAGGUCAACAGUCUUCAACAGAGGAUUGAGCAUCA
B13: chr11:134117265:134117266:+_ENSG00000151502_ENST00000281187|hu_hu|FALSE|FALSE (ssRNA)
RNA: GGGAGUUCUACAGUCCGACGAUCGUUGGAAAAUGAACGUGUGUUGUCAGUUGGGAGGCAAAGGAAUUGACAAAUGCUUCUAGUUAGAAUAUCAGCUAGGAAAAGGAGGGAUACAGAGCCUGACCUCAUGCUCUGAAAAGGCAACAACAGAGGAUUGAGCAUCA
B14: chr2:37230337:37230338:-_ENSMUSG00000075376_ENSMUST00000100143|mus_hu|motif|central (ssRNA)
RNA: GGGAGUUCUACAGUCCGACGAUCAGAAAUAAAUAAGUUAACUAAGUCUACUUUCACUAGAUGUAUCAUUGUAGGAUCCUGCGGGUUUAAUAACUGAGUUGUUAAUUUUCUAUAGAAGCCAUUUAAAAUAGGAAAUGGCUCAGUCAACAGAGGAUUGAGCAUCA
B15: chr14:103969519:103969520:+_ENSG00000075413_ENST00000216288|hu_mus|FALSE|FALSE (ssRNA)
RNA: GGGAGUUCUACAGUCCGACGAUCAUUACUGGGUUACAGCUUUAGCUCAUUGGCAAUUUUGGAAGCAAUAUUUUUGAAAGCUAUGGAUGUCCCUGAUAUCCGCUUAAACCGGACUCCAUUCAGAGACAGUCUUGGCAGCUUACACAACAGAGGAUUGAGCAUCA
B16: chr3:169711627:169711628:+_ENSG00000008952_ENST00000337002|hu_mus|motif|central (ssRNA)
RNA: GGGAGUUCUACAGUCCGACGAUCCUAAAAACAUACCUUACAUGGUUUUUGUUUUACAAAUUUCAGUGUUGAGAAAUGUCGGAAUAAUAAGUAACAAUUAAAAUAAAAUGUUUUAUUUGUAAAUUAUGUACAGAAUACAUCUUACAACAGAGGAUUGAGCAUCA
B17: chr16:20502619:20502620:+_ENSMUSG00000003235_ENSMUST00000003320|mus_mus|FALSE|FALSE (ssRNA)
RNA: GGGAGUUCUACAGUCCGACGAUCGUCAGCACAAACAGCUGAGUACAUGUGUAGGUUGGAGACCCGGGCACCAUAUUCCCUAGUUGUCACAUGCAAGUGAAUCUGGUUUCCUAGGACCUCCUCAUUCAUUAAUAUGCCUCGUACCAACAGAGGAUUGAGCAUCA
B18: chr13:100192331:100192332:-_ENSMUSG00000052727_ENSMUST00000064762|mus_mus|FALSE|FALSE (ssRNA)
RNA: GGGAGUUCUACAGUCCGACGAUCUAGCAAAUGAUUAAAUUUAUAAAACGAGUAUUAGAAAGCUCCUAAAUUUCAUAAGCUAUUGGAAACACUUAAAACAUUCAUAUACACUGGGGAAACCAUUCACUAUGAUAUGUAACGUUACAACAGAGGAUUGAGCAUCA
B19: chr5:123980014:123980015:-_ENSG00000168916_ENST00000504926|hu_mus|FALSE|FALSE (ssRNA)
RNA: GGGAGUUCUACAGUCCGACGAUCAGGAGAGACAGCCCGGUAUGCAGGGUGGCUGGGGUCAUACAUCUGUGGGUAAGGAUAAGCAUGCAAGUAUUGUAUGUAGGACUGGUGCUGACUCAUGGGUGAGGACACGGCCACUCGUGUCAACAGAGGAUUGAGCAUCA
B20: chr1:39494447:39494448:+_ENSG00000168653_ENST00000372967|hu_mus|hu_hu_hu_mus_False|8_8 (ssRNA)
RNA: GGGAGUUCUACAGUCCGACGAUCGCACCGAGCGGCGUUCUUAUAGGGCUGUUCUGCGCUUAGGAACAUAAAGUGCCGGUCCAGGCUGAUGCCCAGCUUUUUCUGUAUGUCAAGGAAAGGCAUGGCUGAUGCUCGUGCUUGUCACAACAGAGGAUUGAGCAUCA
B21: chr3:9412954:9412955:+_ENSG00000134077_ENST00000452837|hu_mus|hu_hu_hu_mus_False|8_18 (ssRNA)
RNA: GGGAGUUCUACAGUCCGACGAUCGGUUGAUAUCUCUUCUUUGAUGGCUGGAUUUUCAUAAUAGUCCAAGAUAUGUGAAUCUGAAGUGCUGCUGGCAUGCUUUUUCUUACCAUCUUUCUGAUCGAUUUUGACUUCUUGUCCACACAACAGAGGAUUGAGCAUCA
B22: 195243423_195243543_1189_3pUTR_ENSG00000184203_ENST00000328432|human|control|control (ssRNA)
RNA: GGGAGUUCUACAGUCCGACGAUCAAUUAACCAGUGUUUUUACAAAAGUAAUGCAGUUUUGGACUGAUGAUAUUACACUGUAUUUGUGGUAAAGUACUAGGCACAAGAAUAUAUAUAUCGAUUAGGCAUUUUCAGUCUAAUCAGCAACAGAGGAUUGAGCAUCA

The binders below were run against T1, UNK ZnF1-3 (human, UniProt Q9C0B0 31-174) (assay: nsRBNS (natural sequence RNA bind-n-seq); RBNS binding buffer (assumed for nsRBNS): 25 mM Tris pH 7.5, 150 mM KCl, 3 mM MgCl2, 0.01% Triton X-100, 500 ug/ml BSA, 20 U/ml SUPERase-In, 4 C; UNK is unkempt and MSI1 is Musashi-1; names of the RNAs are library labels; protein concentration not given here; high values mean tight binding).
T1 sequence: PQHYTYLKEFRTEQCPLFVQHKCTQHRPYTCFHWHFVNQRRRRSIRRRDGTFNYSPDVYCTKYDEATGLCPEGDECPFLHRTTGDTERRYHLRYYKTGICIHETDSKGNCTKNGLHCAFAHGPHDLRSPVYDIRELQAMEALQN

Binder | binding signal [enrichment R]
B1 | 1.27
B2 | 1.25
B3 | 2.27
B4 | 0.75
B5 | 0.895
B6 | 1.4
B7 | 2.17
B8 | 1.23
B9 | 1.42
B10 | 2.49
B11 | 0.538
B12 | 0.607
B13 | 1.17
B14 | 1.25
B15 | 0.596
B16 | 0.501
B17 | 0.737
B18 | 1.15
B19 | 0.665
B20 | 0.849
B21 | 0.353
B22 | 0.761
